Measurements from PubChem BioAssay AID445 (National Center for Advancing Translational Sciences (NCATS), 2006).
Screen size: about 110,000 compounds; about 40 (0.04%) were called active. Inconclusive means that the source gave no clear call. Such entries were picked first, then a sample of the others. Calls follow the shape of the dose curve; as a rule, active = well fitted curve in the direction sought with a large enough effect in the signal ratio (not every such curve was filed as active); inconclusive = small, poorly fitted or top-dose-only effect, or a change in a side signal; inactive = flat fitted curve, though single readings scatter; the % refers to the signal ratio. Potencies beside an inconclusive call are fits to weak or partial responses and may not hold up.

Assay: IkB Signaling;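 as to IkBa stabilization activation: 0% = basal untreated cells and 100% = reference inhibitor full response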
Details: ABC-DLBCL IkBa-CBG/CBR dual luciferase ratio (green luciferase fused to IkBa over red control in OCI-Ly3 lymphoma cells), 4 h; IkBa stabilization activation: at 57.1 µM (top of the series), scaled: untreated 0%, proteasome inhibitor 100% unless noted
Method in brief: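 Curves were fitted separately to fusion (green), unfused (red) and ratio luminescence, then classed by r2, magnitude and activity. Cells: OCI-Ly3, 4 h compound plus doxycycline at 37C; 10 uM MG-132 defined full response.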
Potency is read from the fitted curve at half-maximal effect.

Structure (SMILES)	IkBa stabilization activation	Potency
O=c1c2oc3ccccc3c2n(Cc2ccccc2F)c(=O)n1Cc1ccc2c(c1)OCO2	inconclusive: -1.28% [signal inhibitor]	–
CCN(CC)S(=O)(=O)c1ccc(NC(=O)c2c(C)oc3ncnc(N4CCCCC4)c23)cc1	inconclusive: -0.628% [signal inhibitor]	–
Cc1ccc(-c2nnc(SCC(=O)NCc3ccccc3)o2)cc1	inactive	–
NC(=O)c1c(NC(NC(=O)c2ccco2)(C(F)(F)F)C(F)(F)F)sc2c1CCCC2	inconclusive: 4.32% [signal inhibitor]	–
CCCC(=O)N1c2ccccc2-c2nnc(SC)nc2OC1c1sccc1C (configuration not stated)	inconclusive: 5.47% [signal inhibitor]	–
C[C@]12C=CC(=O)C=C1CC[C@@H]1[C@H]3C[C@@H](O)[C@](O)(C(=O)CO)[C@]3(C)C[C@H](O)[C@]12F	–	inconclusive: 0.0316 µM [rising, full curve]
COC(=O)N1CCC2(CC1)CN(C(=O)Nc1cccc(F)c1)C2	inactive: 3.46% [at 11.4 µM, scaled: untreated 0%, proteasome inhibitor 100%]	–
COc1ccc(-n2c(Cc3cccn3C)nnc2SCC(=O)Nc2cc(C)cc(C)c2)cc1	inconclusive: 2.96% [signal inhibitor]	–
Cc1ccc(C)c(N2CCN(S(=O)(=O)c3cc(C(=O)Nc4ccccc4C(F)(F)F)ccc3F)CC2)c1	inactive	–
CC(Oc1ccccc1)C(=O)Nc1c(C(=O)Nc2cccc(F)c2)oc2ccccc12 (configuration not stated)	inconclusive: 2.09% [signal inhibitor]	–
O=C(O)CCCC[C@H]1CCSS1	inactive	–
Cc1ccc2oc(=O)c3cnn(CC(=O)N4CCN(c5cccc(Cl)c5)CC4)c3c2c1	inconclusive: -0.151% [signal inhibitor]	–
Cc1cc(CN2CCN(CCC#N)CC2)c(O)c(C2(C)CCCCC2)c1	inconclusive: -7% [signal inhibitor]	–
CCOC(=O)c1[nH]c(C)c(CCC(=O)N2CCN(c3cc(C)ccc3C)CC2)c1C	inconclusive: 0.907% [signal inhibitor]	–
Cc1cc(C)n(-c2ccc(F)cc2)c(=O)c1C(=O)O	inactive	–
CCOc1ccc(OCC)c(NC(=O)CN(C)S(=O)(=O)c2ccc3[nH]c(=O)oc3c2)c1	inconclusive: 2.67% [signal inhibitor]	–
Cc1ccc(NC(=O)c2nc(S(=O)(=O)Cc3ccc(F)cc3)ncc2Cl)cc1C	inconclusive: -2.38% [signal inhibitor]	–
Cc1cccc(C(=O)Nc2ccc3nc(SCC(=O)N4CCCC4)sc3c2)c1	inconclusive: -0.106% [signal inhibitor]	–
O=C(CSc1nc(=O)[nH]c2c1CCC2)Nc1cc(C(F)(F)F)ccc1Cl	inconclusive: 0.459% [signal inhibitor]	–
COc1cc(CNC(=O)c2ccc(NC(=O)N3CCCCc4ccccc43)cc2)cc(OC)c1OC	inconclusive: 2.73% [signal inhibitor]	–
CCn1c2ccccc2c2nnc(SCC(=O)N3CC(C)OC(C)C3)nc21 (configuration not stated)	inactive	–

Structure (SMILES)	IkBa stabilization activation	Potency
CNc1nc(-c2ccc(C(=O)N(C)C)cc2)nc2ccccc12	inactive: 0.989% [at 11.4 µM, scaled: untreated 0%, proteasome inhibitor 100%]	–
CCc1ccccc1NC(=O)C1CCCN(S(=O)(=O)c2ccc3[nH]c(=O)ccc3c2)C1 (configuration not stated)	inconclusive: -1.02% [signal inhibitor]	–
CCOc1ccccc1C1CC(=O)Nc2cc3c(cc21)OCO3 (configuration not stated)	inconclusive: 7.55% [signal inhibitor]	–
COc1ccc(N2CCN(C(=O)CSc3nc(-c4ccccc4)no3)CC2)cc1	–	inconclusive: 6.31 µM [signal inhibitor, partial curve]
CC1N(C)c2cc(NC(=O)c3ccco3)ccc2C1(C)C (configuration not stated)	inconclusive: 1.25% [signal inhibitor]	–
CN(C)c1nc(SCC#N)nc(N(C)C)n1	inactive	–
COc1ccc(Cn2c(C3CC3)nc3ccc(NC(=O)c4ccco4)cc3c2=O)cc1	inconclusive: 5.87% [signal inhibitor]	–
N#Cc1cccc(NC(=O)N2CCCC3(CCN(S(=O)(=O)c4ccccc4)CC3)C2)c1	inactive: 1.82% [at 11.4 µM, scaled: untreated 0%, proteasome inhibitor 100%]	–
COc1ccc(-n2nc3c(N4CCC(C(=O)NC5CCCCC5)CC4)nnc(C)c3c2C)cc1	inconclusive: 2.78% [signal inhibitor]	–
CCc1nc2c(cnn2-c2ccc(C)cc2)c(=O)n1Cc1ccccc1	inconclusive: 2.89% [signal inhibitor]	–
CCOC(=O)N1CCN(C(=O)C2CCN(c3ncnc4c3sc3cccc(F)c34)CC2)CC1	inconclusive: -2.92% [signal inhibitor]	–
Cc1ccc(-c2onc(C)c2C)cc1S(=O)(=O)NCc1ccc(N(C)C)cc1	inconclusive: 2.83% [signal inhibitor]	–
Cc1csc2nc3ccccc3c(=O)n12	inactive	–
CCc1ccc(NC(=O)Cn2c(=O)n(CCCCC(=O)NCc3ccccc3Cl)c(=O)c3ccccc32)cc1	inconclusive: 2.23% [signal inhibitor]	–
COc1ccc(NC(=O)c2cc(C)nc3c2c(C)nn3-c2ccc(C)cc2)cc1OC	inconclusive: -1.23% [signal inhibitor]	–
CCOc1cc(OCC)cc(C(=O)Nc2cccc(-c3nc4ccccc4[nH]3)c2)c1	–	inconclusive: 20 µM [signal inhibitor]
COc1cccc(Cn2c(=O)n(-c3cccc(Cl)c3)c(=O)c3c4c(sc32)CN(C(C)=O)CC4)c1	inactive	–
C=CCC(CC=C)(CNC(=O)C(=O)Nc1ccc(C)cc1)c1ccccc1	inconclusive: 3.65% [signal inhibitor]	–
COc1ccccc1-c1nnc(C2CCN(C(=O)c3cccc(C)c3)CC2)o1	inconclusive: 1.27% [signal inhibitor]	–
COCCN1C=C(C(=O)OC)C(c2ccc(OC)c(OC)c2)C(C(=O)OC)=C1	inactive	–
O=C(NCc1ccccc1)C(=O)NCC(c1ccco1)S(=O)(=O)c1ccc(Cl)cc1 (configuration not stated)	inconclusive: 3.49% [signal inhibitor]	–
